Here are results for 108 molecules from PubChem BioAssay AID488969 (Vanderbilt High Throughput Screening Facility, 2010).

In all, about 110,000 compounds were measured (“z-score”: median about -0.1, highest 2% from about 2 on). The list shows a part of the results. Active and inactive are the calls of the source.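 The calls were made as follows: active = z-score in the third read window above 3 or below -3; inactive = the rest.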

This test concerns the target Metabotropic glutamate receptor 8 (Rattus norvegicus) (UniProt P70579). In words: rat mGluR8 modulators via GIRK flux, primary screen, cell-based, thallium flux, HTS (AID 488969). The following applies: HEK293 rat mGluR8, GIRK (G protein-gated inwardly rectifying potassium channel) thallium flux, FluoZin2; at 10 µM; stronger effect = higher value; submaximal glutamate (EC20) added with thallium.
Sequence of UniProt P70579 (P70579 whole entry, looked up): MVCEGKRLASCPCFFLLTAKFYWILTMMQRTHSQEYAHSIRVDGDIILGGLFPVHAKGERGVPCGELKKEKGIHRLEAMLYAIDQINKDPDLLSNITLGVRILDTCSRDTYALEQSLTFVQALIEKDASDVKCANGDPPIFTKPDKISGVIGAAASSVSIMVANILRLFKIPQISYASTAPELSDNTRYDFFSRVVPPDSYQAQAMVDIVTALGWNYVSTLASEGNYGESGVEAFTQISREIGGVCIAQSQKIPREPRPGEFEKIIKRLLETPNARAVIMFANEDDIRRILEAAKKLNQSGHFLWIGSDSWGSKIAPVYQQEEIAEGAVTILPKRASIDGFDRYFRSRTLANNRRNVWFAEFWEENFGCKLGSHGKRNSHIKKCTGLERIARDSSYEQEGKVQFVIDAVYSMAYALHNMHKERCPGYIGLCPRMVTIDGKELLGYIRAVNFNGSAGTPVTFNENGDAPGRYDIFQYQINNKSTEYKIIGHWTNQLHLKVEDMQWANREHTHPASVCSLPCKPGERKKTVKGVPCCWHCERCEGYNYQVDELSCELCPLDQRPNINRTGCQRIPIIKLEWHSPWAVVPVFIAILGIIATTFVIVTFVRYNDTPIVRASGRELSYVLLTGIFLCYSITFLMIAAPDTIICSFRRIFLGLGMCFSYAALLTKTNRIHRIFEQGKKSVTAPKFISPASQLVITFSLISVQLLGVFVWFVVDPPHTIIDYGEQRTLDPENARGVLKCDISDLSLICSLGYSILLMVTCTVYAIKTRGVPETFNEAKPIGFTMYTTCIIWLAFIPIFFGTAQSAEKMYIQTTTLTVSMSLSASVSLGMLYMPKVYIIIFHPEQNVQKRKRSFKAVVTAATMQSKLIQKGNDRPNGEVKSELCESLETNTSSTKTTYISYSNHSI
`N=c1ccn(CC(=O)NC(N)=O)c2ccccc12`: the z-score is -0.291.
To `O=C(Nc1nccs1)c1ccc(Br)o1` belongs 1.14; to `CC1=C(C(=O)O)N2C(=O)C(NC(=O)c3ccn(C)n3)C2SC1` (stereo not drawn), -0.158.
Consider `CCN(CC)C(=O)C1CC(=O)N(c2ccc(F)c(Cl)c2)C1` (stereo not drawn), for which the z-score is -0.0387.
To `Cc1c(NC(=O)CSc2nnc(-c3cccc(Cl)c3)o2)c(=O)n(-c2ccccc2)n1C` belongs 0.0966; to `Cc1cc(C(=O)C(=O)NC(C)C)c(C)n1-c1ccc([N+](=O)[O-])cc1`, -0.134.
Molecule `CCOc1ccc(N2C(=O)C3CC(C)=C(C)CC3C2=O)c([N+](=O)[O-])c1` (stereo not drawn) showed a z-score of -0.225.
With `COc1ccc(CNC(=O)CSc2nnc(Cn3nnc4ccccc43)n2C)cc1`, the z-score is -0.104.
Consider `COC(=O)NC(=S)Nc1ccc(Oc2ccc(Cl)cc2Cl)c(Cl)c1`, for which the z-score was active: 3.69.
To `CCOC(=O)c1c(-c2ccccc2)nnn1-c1nc(OC)nc(N2CCOCC2)n1` belongs -0.476.
To `Cc1cc(OCC(=O)Nc2cccc(S(=O)(=O)NC3=NCCCCC3)c2)ccc1Cl` belongs 0.419; to `O=C(CCSc1ccccc1)Nc1ccc(S(=O)(=O)N2CCOCC2)cc1`, -0.763.
To `O=C(NCc1ccc2c(c1)OCO2)C1(S(=O)(=O)c2ccccc2)CC1` belongs 0.121; to `CSc1cccc(NC(=O)CN2C(=O)c3ccccc3S2(=O)=O)c1`, -0.451.
`Cc1ccc(N2CC(C(=O)OCC(=O)C(C)(C)C)CC2=O)cc1` (stereo not drawn) registered a z-score of -1.06.
To `Cc1cccc(-c2noc(CN(C(C)C)S(=O)(=O)c3ccc(F)cc3)n2)c1` belongs 0.279; to `Cc1c(NC(=O)CC(O)(C(F)(F)F)C(F)(F)F)c(=O)n(-c2ccccc2)n1C`, -0.318; to `Cc1cc(C)n(-c2nc3ccccc3nc2N2CCCC2)n1`, -0.364.
To `O=C(Cc1c(O)c2ccccc2[nH]c1=O)OC1CCCCC1` belongs 0.369.
`CN(C)c1ccc(C2N(c3ccc(F)cc3)C(=O)C3CCCN32)cc1` (stereo not drawn) showed a z-score of -0.532.
To `Cc1noc(/C=C/N(C)C)c1S(=O)(=O)N1CCCC(C(=O)NCc2ccco2)C1` (stereo not drawn) belongs -0.593; to `COc1ccccc1N1CCN(C(=O)CSc2nc3ccccc3o2)CC1`, -0.0579.
To `Cc1ccc(NC(=S)NCC23C=CC(O2)C2C(=O)N(c4ccc(C)cc4)C(=O)C23)cc1` (stereo not drawn) belongs -0.0336; to `O=C(NCCNc1ccc([N+](=O)[O-])cc1C(F)(F)F)c1ccc(F)cc1`, 0.231; to `COc1ccc(CCn2c(C)cc(C(=O)CSc3nnnn3-c3ccccc3)c2C)cc1`, 0.292.
`CCNC(=O)COc1ccc(Br)cc1Cl` registered a z-score of 0.307.
To `CCCOc1ccc(-c2nnn(CC(=O)c3ccc4c(c3)OCCO4)n2)cc1` belongs 0.402; to `CCc1nc(SCC(=O)NCCc2ccccc2)c2oc3ccccc3c2n1`, -0.0955.
In turn, `CC(=O)Nc1ccc(S(=O)(=O)N2CCN(CCCOc3cc(C)ccc3C)CC2)cc1` returned a z-score of 0.202.
Consider `O=C(Cn1cnc2c(cnn2-c2ccccc2)c1=O)N1CCCc2ccccc21`, for which the z-score is -0.296.
`COc1ccc(C(CC(=O)N2CCOCC2)C(C)C)cc1` (stereo not drawn) came in with a z-score of -0.118.
As to `Cc1cccc(NC(=S)N2CCC(c3nc4ccccc4o3)CC2)c1C`, the z-score was -0.413.
Consider `O=C(O)c1ccc(S(=O)(=O)c2ccc3c(c2)C(=O)N(CC2CCCO2)C3=O)cc1` (stereo not drawn), for which the z-score was -0.2.
To `Cc1cc(Br)cc(Cl)c1OCC(=O)NC(=O)NCc1ccccc1` belongs -0.59; to `CCCc1[nH][nH]c(=O)c1C(c1ccc(Cl)cc1)C(C#N)C#N` (stereo not drawn), -0.329; to `CC1CCN(S(=O)(=O)c2ccc3c(c2)c(=O)c(C(=O)NC2CCCC2)cn3C)CC1`, -0.297.
Take `Cn1c(=O)c(/C=C/c2ccccc2)nc2ccccc21`: the z-score is -0.208.
To `Cc1ccc(CNC(=O)CS(=O)CC(=O)O)cc1` (stereo not drawn) belongs -0.173; to `CCOC(=O)CSc1nnnn1-c1cc(OC)c(Cl)cc1OC`, -0.483.
In the case of `CCCCCCc1ccc(OCC(=O)OC)cc1OCC(=O)OC`, the z-score was -0.166.
As to `O=C(CN1CCSCC1)N1CCc2[nH]c3ccc(Br)cc3c2C1`, the z-score came out at 0.123.
To `COCCNC(=O)COC(=O)/C=C/c1c(C)nn(Cc2ccc(Cl)cc2Cl)c1Cl` belongs -0.23; to `Cc1ccc(-n2c(C)cc(/C=N/NC(=O)c3ccncc3)c2C)c(C)c1`, -0.298; to `COc1ccc(CCN(Cc2cc3cccc(C)c3[nH]c2=O)C(=O)NC2CCCCC2)cc1OC`, -0.325.
Take `CCCCn1cnc2c1c(=O)n(C)c(=O)n2C`: the z-score is -0.0999.
`CCc1nnc(N2C(=O)c3ccc(Oc4ccc([N+](=O)[O-])cc4)cc3C2=O)s1` yielded a z-score of 0.0564.
To `O=C(CN1CCOCC1)Nc1ccccc1C(=O)O` belongs -0.257; to `COc1ccc(S(=O)(=O)NCCC(C)C)cc1OC`, -0.892; to `C=CCn1c(SCC(=O)NCc2ccc3c(c2)OCO3)nc2scc(-c3ccc(F)cc3)c2c1=O`, -0.0818.
The molecule `OC(CNC1CCCCC1)COCCOc1ccc(Br)cc1` (stereo not drawn) came in with a z-score of 0.263.
In the case of `COC(=O)c1cc(COC(=O)c2ccc3ccccc3n2)oc1C`, the z-score was -0.698.
For `CCOC(=O)c1c(C)c(C(=O)NCc2cccs2)c(C)n1CC`, the z-score was -0.679.
Regarding `CCC(C)NC(=O)c1ccc([N+](=O)[O-])c(Cl)c1` (stereo not drawn), the z-score is -0.0959.
To `O=C(O)c1cnc2ccccc2n1` belongs 0.243; to `N#Cc1ccc(OCC(=O)OCC(=O)Nc2cc(C(F)(F)F)ccc2N2CCOCC2)cc1`, -0.0127; to `Cc1cc(C(F)(F)F)n2ncc(C(=O)O)c2n1`, -0.514.
To `O=C(/C=C\Nc1cccc(F)c1)c1cccs1` belongs 0.253; to `COc1ccccc1-c1c(C(F)(F)F)oc2cc(OCC(=O)Nc3ccccc3C(F)(F)F)ccc2c1=O`, -0.175.
Consider `CCOC(=O)c1c(N)nn(C(=O)C(C)(C)C)c1-c1ccccc1`, for which the z-score stood at 0.205.
For `O=C(NN1C(=O)C2C3c4ccccc4C(c4ccccc43)C2C1=O)c1ccccc1` (stereo not drawn), the z-score was found to be 0.897.
`CC(=O)N(NC(=O)c1ccccc1Cl)C1CC(=O)N(c2ccc(C)cc2)C1=O` (stereo not drawn): the z-score was -0.133.
To `CCCOC(=O)/C(C(N)=NCc1ccccc1)=C(\O)OCCC` belongs -0.245.
To `CS(=O)(=O)N1CC(C(=O)NC2CC2)Oc2ccc(Cl)cc21` (stereo not drawn) belongs -0.141; to `Cc1ccc(-c2nnc(Nc3ccc4c(c3)nc(C)n4C)c3ccccc23)cc1`, -0.181; to `O=C(NCC1COc2ccccc2O1)C1CCCN(S(=O)(=O)c2cccc3cccnc23)C1` (stereo not drawn), 0.963.
To `COc1ccc(S(=O)(=O)N(C)c2ccc(C(=O)N3CCC(C(N)=O)CC3)cc2)cc1` belongs 0.0603; to `COc1ccccc1OCC(=O)OCn1c(SC)nnc(C)c1=O`, -0.13; to `COc1ccc(C(=O)Nc2oc(-c3ccccc3)c(-c3ccccc3)c2C#N)cc1OC`, 0.159.
Consider `O=C(NCc1ccco1)C(c1ccc(F)cc1)N(CC1CCCO1)C(=O)Cn1nnc2ccccc21` (stereo not drawn), for which the z-score is -0.299.
To `CN(CC(=O)NCCN1CCN(Cc2ccccc2)CC1)S(=O)(=O)c1cccc2nsnc12` belongs -0.0478; to `COC(=O)c1ccc(CSc2nnc(CNC(=O)c3ccccc3F)o2)o1`, -0.0532.
To `CCC(C)Sc1nc2ccccc2c(=O)[nH]1` (stereo not drawn) belongs 0.337.
To `Cc1ccc(C(=O)CSc2nc3ccccc3c(=O)[nH]2)cc1` belongs -0.343; to `Cn1cc([N+](=O)[O-])c(C(=O)Nc2ccc3c(c2)OCCO3)n1`, 0.661; to `CCC(C)NC(=O)CN(c1ccc2c(c1)OCO2)S(=O)(=O)c1c(C)n[nH]c1C` (stereo not drawn), 0.0816.
The molecule `Cc1ccc2[nH]c(-c3ccccc3)c(CN3CCN(C)CC3)c(=O)c2c1` registered a z-score of -0.0794.
To `CC(C)C(NC(=O)CN1C(=O)c2ccccc2S1(=O)=O)C(C)C` belongs -0.268; to `COC(=O)C1=C(C(=O)c2ccccc2)C(c2ccc(OC)c(OC)c2)Nc2nnnn21` (stereo not drawn), 0.0695; to `Cc1sc2nc(C)n(/N=C/c3ccc(O)cc3)c(=O)c2c1C`, -0.305.
To `Cc1ccc2[nH]cc(CCNC(=O)Nc3ccccc3)c2c1` belongs 1.23.
In the case of `CCOC(=O)C1(c2ccccc2)NC(c2ccc(N(C)C)cc2)C2C(=O)N(C)C(=O)C21` (stereo not drawn), the z-score was 0.882.
As for `CC(=O)c1cnn(-c2nc3c(C)cccc3s2)c1C`, the z-score was -0.111.
To `CC1=C(C(=O)Nc2cccc(C)c2C)C(c2cccs2)NC(=S)N1` (stereo not drawn) belongs -0.343; to `Cc1cc(=O)oc(C)c1C(=O)N1CCN(c2ccc(F)cc2)CC1`, 0.465.
Molecule `COCCNC(=O)c1cn(C)c(=O)c2cc(OC)c(OC)cc12` yielded a z-score of 0.137.
To `COCCNC(=O)CSc1nc(-c2ccccc2)c(-c2ccccc2)o1` belongs -0.677; to `CNc1nc2[nH]c(=O)c3c(c2s1)OC(N)=C(C#N)C3c1cccc(F)c1` (stereo not drawn), 0.0854.
To `O=C1N=C(N2CCCC2)S/C1=C\c1ccccc1` belongs -0.162; to `CCC(CO)NCc1ccc(-c2ccccc2)cc1` (stereo not drawn), 0.337.
To `CCOc1ccc(C(=O)NC2CCN(C(=O)Nc3ccccc3OC)CC2)cc1` belongs -0.923; to `COc1ccc(N2C(=O)CC(N3CCC(O)(c4ccc(Br)cc4)CC3)C2=O)cc1` (stereo not drawn), 0.215; to `CCCN1CCN(C(=S)Nc2ccc([N+](=O)[O-])cc2)CC1`, -0.205.
As to `CCCCCC(=O)N/N=C(\C)c1ccc(NC(=O)c2ccco2)cc1`, the z-score is -0.112.
To `Clc1ccccc1Sc1cnc2ccccc2n1` belongs 0.551; to `CCc1nnc(NC(=O)CN2CCN(c3cccc(OC)c3)CC2)s1`, 0.136; to `Cc1cnc(NC(=O)CSc2ccc(Cl)cc2)s1`, 1.89.
Take `CCC(=O)Nc1cccc(NC(=O)c2cccc([N+](=O)[O-])c2)c1`: the z-score is -0.78.
The molecule `CC1CCN(CCCNC(=O)c2ccc(CS(=O)(=O)Cc3ccccc3F)o2)CC1` had a z-score of -0.239.
Molecule `Cc1ccc(-c2nnc(SCC(=O)N3CCCC3)o2)cc1C` gave a z-score of 0.166.
In turn, `Cc1ccc(NC(=O)N2CCN(c3ccccn3)CC2)cc1` returned a z-score of -0.533.
As to `CC(C)(C)c1ccc(C(=O)c2c[nH]c(C(=O)NCc3cccs3)c2)cc1`, the z-score is -0.0379.
To `COc1ccc(C(=O)Nn2c(SCc3cccc([N+](=O)[O-])c3)nc3ccccc3c2=O)cc1` belongs -0.0326.
To `CCCC(=O)Nc1ccc2c(c1)nc1n2CCSC1` belongs 0.0727; to `Cc1c(Cl)cccc1Nc1nc(N)nc(CN2CCc3ccccc3C2)n1`, 0.571; to `CC1Cc2ccccc2N1C(=S)Nc1ccc(S(N)(=O)=O)cc1` (stereo not drawn), 0.0257.
To `O=C(O)c1c[nH]c2c(C(F)(F)F)cccc2c1=O` belongs -0.119.
On to `CCOc1cc(/C=N\NC(=O)CN2CCOCC2)ccc1OCc1ccc(F)cc1`, for which the z-score was -0.31.
To `Cc1ccc(S(=O)(=O)N2CCC(C(=O)Nc3nnc(-c4ccc(F)cc4)s3)CC2)cc1` belongs -0.000295.
